Assay results taken from the supplement of paper PMC8047034.
Where a name gives a salt, the structure may show the parent alone. This is one part of the list. Many values rest on one well or one pass, so single values are uncertain.

Legend:
OVCAR4 = assay: log2 surviving fraction (library drug vs vehicle, or drug + carboplatin vs carboplatin alone; relative to plate median); ovarian cancer lines: OVCAR4 is platinum-sensitive and Ov4Carbo platinum-resistant; higher = more cell survival; conditions: library drug concentration 10 µM, 7 days
Ov4Carbo = assay: as above; conditions: library drug concentration 10 µM, 7 days

Compound	log2 surviving fraction (OVCAR4; carboplatin co-treatment 0 µM)	log2 surviving fraction (OVCAR4; carboplatin co-treatment 5 µM)	log2 surviving fraction (Ov4Carbo; carboplatin co-treatment 0 µM)	log2 surviving fraction (Ov4Carbo; carboplatin co-treatment 5 µM)
Cc1ncc([N+](=O)[O-])n1CC(C)O (stereo unspecified) [Secnidazole (Flagentyl)]	0.0639	-0.189	-0.376	0.25
Nc1ccc(S(=O)(=O)Nc2ncccn2)cc1 [Sulfadiazine]	1.37	0.986	0.805	0.396
CCCNC(C)C(=O)Nc1c(C)csc1C(=O)OC (stereo unspecified) [Articaine HCl]	0.11	0.473	-0.688	-0.422
N[C@H](C(=O)O)[C@H](O)c1ccc(O)c(O)c1 [Droxidopa (L-DOPS)]	1.47	-0.225	-0.437	0.192
CC(=O)NS(=O)(=O)c1ccc(N)cc1 [sulfacetamide sodium]	-0.476	-0.402	0.51	0.112
CC(C)[N+]1(C)[C@@H]2CC[C@H]1C[C@@H](OC(=O)C(CO)c1ccccc1)C2 (stereo partly specified) [Ipratropium bromide]	-8.96	-1.73	0.35	-0.269
CCCc1nc(C)c2c(=O)nc(-c3cc(S(=O)(=O)N4CCN(CC)CC4)ccc3OCC)[nH]n12 [Vardenafil (Vivanza)]	0.0563	-0.153	0.467	-0.00405
CN1[C@@H]2CC[C@H]1C[C@@H](OC(=O)C(CO)c1ccccc1)C2 (stereo partly specified) [Atropine]	-1.42	-0.929	-0.528	-1.68
CO[C@@]1(NC(=O)C(C(=O)O)c2ccc(O)cc2)C(=O)N2C(C(=O)O)=C(CSc3nnnn3C)CO[C@@H]21 (stereo partly specified) [Moxalactam Disodium]	-0.173	-0.177	-0.408	-0.43
CCCCc1ncc(/C=C(\Cc2cccs2)C(=O)O)n1Cc1ccc(C(=O)O)cc1 [Eprosartan Mesylate]	0.0247	-0.196	0.0952	-0.232
CN1C(C(=O)Nc2ccccn2)=C(O)c2sccc2S1(=O)=O [Tenoxicam (Mobiflex)]	-0.187	0.0577	1.01	-0.00188
N=C(N)c1ccc(OCCCCCOc2ccc(C(=N)N)cc2)cc1 [Pentamidine]	-5.44	-4.83	-5.82	-5.08
O=c1ccc2ccccc2o1 [Coumarin]	0.981	-0.161	-1.13	-0.333
C[C@H]1C[C@H]2[C@@H]3CCC4=CC(=O)C=C[C@]4(C)[C@@]3(F)[C@@H](O)C[C@]2(C)[C@@]1(O)C(=O)CO [Betamethasone (Celestone)]	0.58	0.609	1.05	0.648
CCCCCCCCCCCCCCCC[N+](C)(C)CCN(Cc1ccc(OC)cc1)c1ncccn1 [Thonzonium Bromide]	-9.13	-7.89	-8.36	-7.46
CCN1CC(CCN2CCOCC2)C(c2ccccc2)(c2ccccc2)C1=O (stereo unspecified) [Doxapram HCl]	0.193	0.282	0.109	0.997
Cc1ncc([N+](=O)[O-])n1CC(O)CCl (stereo unspecified) [Ornidazole]	-0.355	0.0371	0.732	0.0179
Clc1cccc(Cl)c1NC1=NCCN1 [Clonidine hydrochloride (Catapres)]	1.01	0.723	0.969	0.755
OCCOCCN1CCN(C2=Nc3ccccc3Sc3ccccc32)CC1 [Quetiapine fumarate (Seroquel)]	-2.69	-2.69	0.0314	-0.293
CN1[C@@H]2C[C@@H](OC(=O)[C@H](CO)c3ccccc3)C[C@H]1[C@@H]1O[C@@H]12 [Scopolamine hydrobromide]	-0.319	0.0417	-0.397	0.62
CCCCCCCCCC(=O)N[C@H]1[C@H](Oc2c3cc4cc2Oc2ccc(cc2Cl)[C@@H](O[C@@H]2O[C@H](CO)[C@@H](O)[C@H](O)[C@H]2NC(C)=O)[C@@H]2NC(=O)[C@H](NC(=O)[C@@H]4NC(=O)[C@H]4NC(=O)[C@@H](Cc5ccc(c(Cl)c5)O3)NC(=O)[C@H](N)c3ccc(O)c(c3)Oc3cc(O)cc4c3)c3ccc(O)c(c3)-c3c(OC4O[C@H](CO)[C@@H](O)[C@H](O)[C@@H]4O)cc(O)cc3[C@@H](C(=O)O)NC2=O)O[C@H](CO)[C@@H](O)[C@@H]1O (stereo partly specified) [Teicoplanin]	-0.25	-0.681	-0.0426	1.38
O=c1[nH]c2ccccc2n1CCCN1CCC(n2c(=O)[nH]c3cc(Cl)ccc32)CC1 [Domperidone (Motilium)]	0.842	0.437	-1.61	0.714
CN1CCC(=C2c3ccccc3C=Cc3ccccc32)CC1 [Cyproheptadine HCl (Periactin)]	-4.11	-1.17	-2.12	-2.1
COc1cc2nc(N3CCN(C(=O)C4CCCO4)CC3)nc(N)c2cc1OC (stereo unspecified) [Terazosin HCl (Hytrin)]	0.567	-0.701	0.152	0.313
CC(C)C[C@H]1C(=O)N2CCC[C@H]2[C@]2(O)O[C@](NC(=O)[C@@H]3C=C4c5cccc6[nH]c(Br)c(c56)C[C@H]4N(C)C3)(C(C)C)C(=O)N12 [Bromocriptine Mesylate]	-2.41	-1.37	-3.2	-1.96
COc1ccc([C@@H]2Sc3ccccc3N(CCN(C)C)C(=O)[C@@H]2OC(C)=O)cc1 [Diltiazem HCl (Tiazac)]	0.318	0.476	-0.361	0.229
Nc1ncnc2c1ncn2[C@@H]1O[C@H](CO)[C@@H](O)[C@@H]1O [Vidarabine (Vira-A)]	0.213	-0.977	0.147	-0.0463

Compound	log2 surviving fraction (OVCAR4; carboplatin co-treatment 0 µM)	log2 surviving fraction (OVCAR4; carboplatin co-treatment 5 µM)	log2 surviving fraction (Ov4Carbo; carboplatin co-treatment 0 µM)	log2 surviving fraction (Ov4Carbo; carboplatin co-treatment 5 µM)
Clc1ccccc1C(c1ccccc1)(c1ccccc1)n1ccnc1 [Clotrimazole (Canesten)]	-0.983	-1.64	-1.01	-1.78
O=C1CCc2ccc(OCCCCN3CCN(c4cccc(Cl)c4Cl)CC3)cc2N1 [Aripiprazole (Abilify)]	-8.29	-0.383	-7.03	-1.16
CCCCOc1ccc(OCCCN2CCOCC2)cc1 [Pramoxine HCl]	-0.0955	-0.737	-0.412	-0.0106
CCOc1ccccc1OC(c1ccccc1)C1CNCCO1 (stereo unspecified) [Reboxetine mesylate]	0.529	-0.651	-0.943	-1.03
Nc1nc(=O)n([C@@H]2CS[C@H](CO)O2)cc1F [Emtricitabine (Emtriva)]	0.42	0.692	0.76	0.991
CNC(=O)Oc1ccc2c(c1)[C@]1(C)CCN(C)[C@@H]1N2C [Physostigmine Salicylate]	-0.537	0.219	0.75	0.668
NC(=O)c1cccnc1 [Nicotinamide (Niacinamide)]	0.305	1.07	0.55	0.47
Cc1cccc(N(C)C(=S)Oc2ccc3ccccc3c2)c1 [Tolnaftate]	0.792	-0.17	0.653	-1.03
CN1CCOC(c2ccccc2)c2ccccc2C1 (stereo unspecified) [Nefopam HCl]	-0.576	-0.818	-0.0292	-1.88
NC(N)=Nc1nc(CSCC/C(N)=N/S(N)(=O)=O)cs1 [Famotidine (Pepcid)]	0.486	0.308	1.71	1.13
NC(=O)OCC(COC(N)=O)c1ccccc1 [Felbamate]	0.451	0.68	-0.0687	0.637
CC(=O)NC[C@H]1CN(c2ccc(N3CCOCC3)c(F)c2)C(=O)O1 [Linezolid (Zyvox)]	0.215	0.83	0.835	-0.547
CC(C)(C)NCC(O)c1ccc(O)c(CO)c1 (stereo unspecified) [Salbutamol sulfate (Albuterol)]	-0.966	-0.581	-0.54	0.479
CCC[C@H](NC(=O)[C@@H]1[C@H]2CCC[C@H]2CN1C(=O)[C@@H](NC(=O)[C@@H](NC(=O)c1cnccn1)C1CCCCC1)C(C)(C)C)C(=O)C(=O)NC1CC1 [Telaprevir (VX-950)]	-0.72	-0.893	-0.943	-1.48
NS(=O)(=O)Cc1noc2ccccc12 [Zonisamide]	0.599	0.768	1.04	0.21
CCOc1nc2cccc(C(=O)OC(C)OC(=O)OC3CCCCC3)c2n1Cc1ccc(-c2ccccc2-c2nn[nH]n2)cc1 (stereo unspecified) [Candesartan cilexetil (Atacand)]	0.8	0.983	-0.112	1.11
CN1C(=O)CCS(=O)(=O)C1c1ccc(Cl)cc1 (stereo unspecified) [Chlormezanone (Trancopal)]	0.538	0.795	0.809	1.18
COc1ccccc1OCCNCC(O)COc1cccc2[nH]c3ccccc3c12 (stereo unspecified) [Carvedilol]	-1.21	-0.974	-1.28	-1.06
COc1ncnc(NS(=O)(=O)c2ccc(N)cc2)c1OC [Sulfadoxine (Sulphadoxine)]	0.000115	0.335	0.618	-0.0721
C[C@]12C=CC(=O)C=C1CC[C@@H]1[C@@H]2C(=O)C[C@@]2(C)[C@H]1CC[C@]2(O)C(=O)CO [Prednisone (Adasone)]	0.557	0.36	0.161	-0.403
CN(C)CCc1c[nH]c2ccc(C[C@H]3COC(=O)N3)cc12 [Zolmitriptan (Zomig)]	-2.68	-0.235	0.372	0.467
CC(C(=O)O)c1ccc2c(c1)[nH]c1ccc(Cl)cc12 (stereo unspecified) [Carprofen]	0.615	0.576	0.654	1.54
Cc1c(-c2ccc(O)cc2)n(Cc2ccc(OCCN3CCCCCC3)cc2)c2ccc(O)cc12 [Bazedoxifene HCl]	-7.16	-6.06	-6.47	-6.71
Clc1ccc(C(Cn2ccnc2)OCc2csc3c(Cl)cccc23)c(Cl)c1 (stereo unspecified) [Sertaconazole nitrate]	-1.88	-2.37	-1.22	-1.2
CC(=O)/N=c1/sc(S(N)(=O)=O)nn1C [Methazolamide]	0.378	1.12	-0.451	0.816
CC(C)(S)[C@@H](N)C(=O)O [Penicillamine (Cuprimine)]	-0.138	0.193	-0.199	-0.528
COc1ccc2c(c1)C(=O)N(CCc1ccc(S(=O)(=O)NC(=O)NC3CCCCC3)cc1)C(=O)C2(C)C [Gliquidone]	-0.364	0.0921	-0.437	-0.484
